Among the data in the RNAGym collection of RNA variant scans (doi:10.7554/elife.90254) are self-cleavage values, retold here.

To fix the notation:
B1: OR4K15 (parent)
chain: GUUAACGGUCAUAGGCCAUGGAAACUAGGAGCACCAUUUCGCUGCCAGUGAAGAAAUGAACAAAGAAAAUCUGGGCCAGGCAGGCAUCAAAAGAAAUAGUCUUGCGCUCAACCAGAAAGUCUGUAAUCAUUUUAAGGGUA

The source gives no read counts; variants with many changes may rest on few reads.

The data set covers variants of B1. Put plainly: self-cleavage, relative activity (ratio to wild type); higher = more cleavage; in vitro, sequencing; the parent is a self-cleaving ribozyme.
For GUUAACGGUCAUAGGCCAUGGAAACUAGGAGCACCAUCUCGCUGCCAGUGAGGAAAUGAACAAAGAAAAUCUGGGCCAGGCGGGCAUCAAAAGAAAUAGUCUUGCGCUCAACCAGAAAGUCUGUAAUCAUUUUAAGGGUA, the self-cleavage was found to be 0.87.

For the variant GUUAACGGUCAUAGGCCAUGGAAACUAGGAGCACCAUAUCGCUGCCAGUGAAGAAAUGAACAGAGAGAAUCUGGGCCAGGCAGGCAUCAAAGGAAAUAGUCUUGCGCUCAACCAGAAAGUCUGUAAUCAUUUUAAGGGUA, the self-cleavage turned out to be 1.64.

In the case of GUUAACGGUCAUAGGCCAUGGAAACUAGGAGCACCAUAUCGCUGCCAGUGAAGAUAUGAACAAAGAAAAUCUGGGCCAGGCAGGCAUCAAAAGAAAUAGUCUUGCGCUCAACCAGAAAGUCUGUAAUCAUUCUAAGGGUA, the self-cleavage came out at 2.17.

Take GUUAACGGUCAUAGGCCAUGGAAACUAGGAGCACCAUAUCGCUGCCAGUGAAGAAAUGAACAAAGAAAAUCUGGGCCAGGCAGGCAUCUAAAGAAAUAGUCUUGCGCUCCACCAGAAAGUCUGUAAUCAUUUUAAGGGUA: the self-cleavage was determined as 0.26.

As for GUUAACGGUCAUAGGCCAUGGAAACUAGGAGCACCAUCUCGCUGCCAGUGAGGAAAUGAACAAAGAAAAUCUGGGCCAGGCAGGCAUCAAAAGAGAUAGUCUUGCGCUCAACCAGAAAGUCUGUAAUCAUUUUAAGGGUA, the self-cleavage is 1.68.

Turning to GUUAACGGUCAUAGGCCAUGGAAACUAGGAGCACCAUAUUGCUGCCAGUGAAGAAAAGAACAAAGAAAAUCUGGGCCAGGCAGGCAUCAAAAGAAAUAGUCUUGCGCUCAACCAGAAAGUCUGUAAUCAUUUUAAGGGUA, the self-cleavage is 1.07.

Regarding GUUAACGGUCAUAGGCCAUGGAAACUAGGAGCACCAUAUCGCUGCCAGUGAAGAAAUGAACAAAGAAGAUCUGGGCCAGGCAGGCAUCAGAGGAAAUAGUCUUGCGCUCAACCAGAAAGUCUGUAAUCAUUUUAAGGGUA, the self-cleavage was found to be 0.88.

GUUAACGGUCAUAGGCCAUGGAAACUAGGAGCACCAUAUCGCUGCCAGUGAAGAAAUGAACAAAGAAAAUCUGGGCCAGGCAGGCAUCAAAAGAAAUAGUCUUGCGCUCAACCAGAGAGUCUGUAGUCAUUGUAAGGGUA: the self-cleavage amounted to 2.54.

Take GUUAACGGUCAUAGGCCAUGGAAACUAGGAGCACCAUCUCGCUGCCAGUGACGAAAUGAACAAAGAAAAUCUGGGCCAGGCAGGCAUCAAAAGAAAUAGUCUUGCGCUCGACCAGAAAGUCUGUAAUCAUUUUAAGGGUA: the self-cleavage stood at 0.11.

With GUUAACGGUCAUAGGCCAUGGAAACUAGGAGCACCAUCUCGCUGCCAGUGAGGAAAUGAACAAAGAAAAUCUGGGCCAGGCAGGCAUCAAAAGAAAUAGUCUUGCGCUCAACCAGAAAGUCUGUAAUCAUCUUAAGGGUA, the self-cleavage is 2.12.

Regarding GUUAACGGUCAUAGGCCAUGGAAACUAGGAGCACCAUAUCGCUGCCAGUGAAGUAAUGAACAAAGAAAAUCUGGGCCAGGCAGGCACCAAAAGAAGUAGUCUUGCGCUCAACCAGAAAGUCUGUAAUCAUUUUAAGGGUA, the self-cleavage came out at 2.28.

As to GUUAACGGUCAUAGGCCAUGGAAACUAGGAGCACCAUCUCGCUGCCAGUGGAGAAAUGAACAAAGGAAGUCUGGGCCAGGCAGGCAACAAAAGAAAUAGUCUUGCGCUCAACCAGAAAGUCUGCAAUCAUUUUAAGGGUA, the self-cleavage was 0.73.

For the variant GUUAACGGUCAUAGGCCAUGGAAACUAGGAGCACCAUCUCGCUGCCUGUGAAGAAAUGAACGAAGAAAAUCCGGGCCAGGCAGGCAUCAAAAGAAAUAGUCUUGCGCUCAACCAGAAAGUCUGUAAUCAUUUUAAGGGUA, the self-cleavage was determined as 0.07.

In the case of GUUAACGGUCAUAGGCCAUGGAAACUAGGAGCACCAUAUCGCUGCCAGUGAGGAAAUGAACAAAGAAAAUCUGGGCCAGGCAGGCGUCAAAAGAAAUAGUCUUGCGCUCAACCAGAGAGUCUGUAAUCAUUUUAAGGGUA, the self-cleavage stood at 1.38.

For the variant GUUAACGGUCAUAGGCCAUGGAAACUAGGAGCACCAUAUCGCUGCCAGUGAAGAAAUGAACAAAGAAAAUCUGGGCCAGGCAGGCAUCGAAAGAAAUAGUCUUGCGCUCAACCAGAAAGUCUGUGAUCAUUUUAAGGGUA, the self-cleavage was determined as 0.48.

For GUUAACGGUCAUAGGCCAUGGAAACUAGGAGCACCAUAUCGCUGCCAGUGAAGAAAUGAACAAAGAAAAUCUGGGCCAGGCAGGCAUCAAAAGAAAUAGUCUUGCGCUCAACCAGAAAGUCUGUAAUCACUUUUAGGGUA, the self-cleavage worked out at 1.03.

Turning to GUUAACGGUCAUAGGCCAUGGAAACUAGGAGCACCAUAUCGCUGCCAGUGAAGAAAUGAACAAAGAAAACCUGGGCCAGGCGGGCAUCAAAAGAAAUAGUCUUGCGCUCAACCAGAAAGUCCGUAAUCAUUUUAAGGGUA, the self-cleavage came to 0.05.

As to GUUAACGGUCAUAGGCCAUGGAAACUAGGAGCACCAUCUCGCUGCCGGUGAAGAAAUGAACAAAGAAAAUCUGGGCCAGGCAGGCAUCAAAAGAAAUAGUCUUGCGCUCAACCAGAUAGUCUGUAAUCAUUUCAAGGGUA, the self-cleavage came to 0.59.

As for GUUAACGGUCAUAGGCCAUGGAAACUAGGAGCACCAUAUCGCCGCCAGUGAAGAAAUGAACAAAGAAAAUCCGGGCCAGGCAGGCAUCAAAAGAAAUAGUCUGGCGCUCAACCAGAAAGUCUGUAAUCAUUAUAAGGGUA, the self-cleavage is 0.02.

For GUUAACGGUCAUAGGCCAUGGAAACUAGGAGCACCAUCUCGCUGCCAGUGUAGAAAUGAACAAAGAAAAUCUGGGCCAGGCAGGCAUCGAAAGAAGUAGUCUUGCGCUCAACCAGAAAGUCUGUAAUCAUUUUAAGGGUA, the self-cleavage came out at 2.04.

For GUUAACGGUCAUAGGCCAUGGAAACUAGGAGCACCAUAUCGCUGCCAGUGAAGAAAUGGACAAAGAAAAUCUGGGCCAGGCAGGCAUCAAGAGAAAUAGUCUUGCGCUCAACCAGAAAGUCUGUAAUCAUUUUAAGGGUA, the self-cleavage was found to be 0.77.

Turning to GUUAACGGUCAUAGGCCAUGGAAACUAGGAGCACCAUAUCGCUGCCAGUGAAGAAAUGAACAGAGAAAAUCUGGGCCAGGCAGGCAUCAAGAGAAAUAGUCUUGCGCUCAACCAGAAAGUCUGUAAUCAUUUUAAGGGUA, the self-cleavage came out at 0.91.

Consider GUUAACGGUCAUAGGCCAUGGAAACUAGGAGCACCAUAUCGCUGCCAGUGAAGAAAUGAACAAAGAAAAUCUGGGCCAGGCAGGCAUCAAAAGAAAUAGUCUUGCGCUCAACCAGAAAGUCUGUAUUCAUUUUAAGGGCA, for which the self-cleavage was 1.87.

With GUUAACGGUCAUAGGCCAUGGAAACUAGGAGCACCAUAUCGCUGCCAGUGAAGAAAUGAACAAAGAAAAUCUGGGCCAGGCAGGCAUCAAAGGAAAUAGUCUUGCGCUCGACCAGAAAGUCUGUAAUCAUUUUGAGGGUA, the self-cleavage came to 0.08.

As to GUUAACGGUCAUAGGCCAUGGAAACUAGGAGCACCAUCUCGCUGCCAGUGGAGAAAUGAACAAAGAAAAUCUGGGCCAGGCAGGCAUCAAAAGAAAUAGUCUUGCGCUCAACCGGAAAGUCUGUAAUCACUUUAAGGGUA, the self-cleavage stood at 0.24.

GUUAACGGUCAUAGGCCAUGGAAACUAGGAGCACCAUAUCGCUGCCAGUGAAGAAAUGAACAAGGAAAAUCUGGGCCAGGCAGGCAUCAAAAGAAGUAGUCUUGCGUUUAACCAGAAAGUCUGUAAUCAUUUUAUGGGUA: the self-cleavage turned out to be 0.01.

As for GUUAACGGUCAUAGGCCAUGGAAACUAGGAGCACCAUAUCGCUGCCAGUGAAGAAAUGAACAAAGAAAAUCUGGGCCAGGCAGGCAUCAAAAGAAGUAGUCUUGCGCUCAACCAGAAAGUCCGUAAUCAUUUUAAGGGUA, the self-cleavage is 0.98.

In the case of GUUAACGGUCAUAGGCCAUGGAAACUAGGAGCACCAUCUCGCUGCCGGUGAAGAAAUGGACAAAGAAAAUCUGGGCCAGGCAGGCAUCAAAAGAAAUAGUCUUGCGCUCAACCAGAAAGUCUGUAAUCAUUUCAAGGGUA, the self-cleavage worked out at 0.85.

Consider GUUAACGGUCAUAGGCCAUGGAAACUAGGAGCACCAUAUCGCUGCCAGUGAGGAAAUGAGCAAAGAAAAUCUGGGCCAGGCAGGCAUCAAAAGAAAUAGUCUUGCGCUCAACCAGAAAGUCUGCAAUCAUUUUAAGGGUG, for which the self-cleavage came to 0.3.

GUUAACGGUCAUAGGCCAUGGAAACUAGGAGCACCAUCUCGCUGCCGGUGAAGAAAUGAACAAAGAAAAUCUGGGCCAGGCAGGCCUCAAAAGAAAUAGUCUUGCGCUCAACCAGAGAGUCUGUAAUCAUUUUAAGGGUA: the self-cleavage worked out at 0.44.

GUUAACGGUCAUAGGCCAUGGAAACUAGGAGCACCAUCUCGCUGCCUGUGAAGAAAUGAACAAAGAAAAUCUGGGCCAGGCAGGCAUCAGAAGAAAUAGUCGUGCGCACAACCAGAAAGUCUGUAAUCAUCUUAAGGGUA: the self-cleavage was found to be 0.

GUUAACGGUCAUAGGCCAUGGAAACUAGGAGCACCAUAUCGCUGCCAGGGAAGAAACGAACAAGGAAAAUCUGGGCCAGGCAGGCAUCAAAAGAAGUAGUCCUGCGCUCAACCAGAAAGUCUGUAAUCAUUUUAAGGGUA: the self-cleavage worked out at 1.06.

For GUUAACGGUCAUAGGCCAUGGAAACUAGGAGCACCAUAUCGCUGCCAGUGAAGAAAUGAACAAAGAAAAUCUGGGCCAGGCCGGCAUCAAAAGAAAUAGUCUUGCGCUCAACCAGAAGGUCCGUAAUCAAUUUAAGGGUA, the self-cleavage was 0.06.

Take GUUAACGGUCAUAGGCCAUGGAAACUAGGAGCACCAUAUCGCUGCCAGUGAAGAAAUGAACAAAGAAAAUCUAGGCCAGGCAGGCAUCAAAAGAAAUAGUCUUGCGCUCGACCAGAAAGUCUGUAAUCAUUUUAAGGGUA: the self-cleavage was determined as 0.03.

Regarding GUUAACGGUCAUAGGCCAUGGAAACUAGGAGCACCAUCUCGCUGCCGGCGAAGAAAUGAGCAUAGAAAAACUGGGCCAGGCAGGCAUCAAAAGAAAUAGUCUUGCGCUCGACCAGAAAGUCUGUAAUCAUUUUAAGGGUA, the self-cleavage worked out at 0.1.

On to GUUAACGGUCAUAGGCCAUGGAAACUAGGAGCACCAUCUCGCUGCCAGUGUAGAAAUGAACAGAGAAAAUCUGGGCCAGGCAGGCAUCAAAAGAAAUAGUCUUGCGCUCAACCAGAAAGUCUGUAAUCAUUUUAAGGGUA, for which the self-cleavage was determined as 1.69.

In the case of GUUAACGGUCAUAGGCCAUGGAAACUAGGAGCACCAUAUCGCUGCCAGUGAAGAGAUGAACAAAGAAAAUCUGGGCCGGGCAGGCAACAAAAGAAAUAGUCCUGCGCUCAACCAGAAAGUCUGUAAUCAUUUUAAGGGUA, the self-cleavage was 0.39.

Regarding GUUAACGGUCAUAGGCCAUGGAAACUAGGAGCACCAUAUCGUUACCAGUGAAGAAAUGAACAAAGAAAAUCUGGGCCAGGCAGGCAUCAAAAGAAAUAGUCUCGCGCUCAACCAGAAAGUCUGUAAUCAUUUUAAGGGUA, the self-cleavage stood at 1.32.

Consider GUUAACGGUCAUAGGCCAUGGAAACUAGGAGCACCAUAUCGCUGCCAGUGGAGAAAUGAACAAAGAAAAUCUGGGCCAGGCAGGCAUCAAAAGAAAUAGUCUUGCGCCCAACCAGAAAGUCUGUAAUCAUUUUAAGGGUA, for which the self-cleavage worked out at 0.01.

Take GUUAACGGUCAUAGGCCAUGGAAACUAGGAGCACCAUAUCGCUGCCAGUGAAGAAAUGAACAAAGAAAAUCUGGGCCAGGCAGGCGCCAAAAGAAAUAGUCUUGCGCUCAACCAGAAAGUCUGUAAUCACUUUAAGGGUA: the self-cleavage worked out at 0.9.

Regarding GUUAACGGUCAUAGGCCAUGGAAACUAGGAGCACCAUAUCGCUGCCAGUGAGGAGAUGAACAAAGAAACUCUGGGCCAGGCAGGCACCAAAAGAAAUAGUCUUGCGCUCAACCAGAAAGCCUGUAAUCAUUUUAAGGGUA, the self-cleavage was 0.24.
